# The campaign covered roughly 410,000 compounds. About 260 (0.063%) were called active. This list was built around the results that the source calls inconclusive (neither active nor inactive); the mix of calls is not that of the screen. Calls follow the shape of the dose curve; as a rule, active = well fitted activation curve with a large enough effect; inconclusive = small, poorly fitted or top-dose-only effect; inactive = no such curve, though single readings can be large or run the other way. No potency is given beside an inconclusive call; the fits are too rough.
# Assay: qHTS for compounds that reverse cellular toxicity of Amyloid beta (A-beta) peptide in yeast: Primary Screen; also: nearly all actives have a fitted effect of over 55% in size
# Details: yeast expressing A-beta42, growth rescue, OD600, 48 h; growth rescue: at 46.1 µM (top of the series), 0% DMSO, 100% iron-clioquinol control
# In short: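 Yeast growth medium received pinned compounds, then yeast cells expressing toxic A-beta were added; plates incubated at 30 C for 48 hr. Growth read as absorbance at 600 nm, normalized to DMSO and equimolar FeCl3 plus clioquinol controls.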
# Potency is read from the fitted curve at half-maximal effect; tags tell the direction and shape of the fitted curve.
SMILES,Potency,growth rescue
Cc1nnc(SCc2ccccc2)[nH]c1=O,"inconclusive [activator, partial curve, poor fit]",–
CC1=CC(C)(C)NC(=S)N1c1ccc(N(C)C)cc1,"inconclusive [activator, partial curve, poor fit]",–
N#Cc1c(-c2ccc(F)cc2)cc(C2CC2)nc1SCC(=O)c1cccs1,"inconclusive [activator, partial curve, poor fit]",–
Cc1ccc(NC(=O)COC(=O)c2ccccc2F)cc1S(=O)(=O)N1CCCCC1,"inconclusive [activator, partial curve, poor fit]",–
O=C(Nc1nccs1)c1ccc(-c2ccc(Cl)cc2)o1,"inconclusive [activator, partial curve, poor fit]",–
COc1ccc(C)cc1NC(=O)N1CCN(S(=O)(=O)c2ccc3c(ccn3C)c2)CC1,–,inactive: -15.5%
COc1ccc(CN2CCc3c(c(=O)n4ncc(C(=O)N5CCN(c6ccccc6F)CC5)c4n3C)C2)cc1,–,inactive: -2.06%
CCOC(=O)c1cnc(-c2ccccc2)nc1C(F)(F)F,–,inactive: -8.13%
Clc1cccc(Cc2c(-c3ccccc3)nc3c4ccccc4ccn23)c1,–,inactive: 3.76%
COCCNC(=O)/C(C#N)=C/c1ccc(OC(=O)c2cccs2)c(OC)c1,"inconclusive [activator, single point]",–
CCc1nnc(NC(=O)c2ccc(S(=O)(=O)N(CC)Cc3ccccc3)cc2)o1,"inconclusive [activator, full curve, poor fit]",–
COc1ccccc1OCC(=O)N1CCC2(CC1)CC(=O)c1ccccc1O2,–,inactive: 30.1%
COc1cc(OC)cc(C2=NC3(CCC(C)CC3)NC2=S)c1 (centres undefined),"inconclusive [activator, single point]",–
CC(C)/C=C/C(=O)N1CCCC(N2CCN(c3ccccc3F)CC2)C1 (centres undefined),–,inactive: -10.8%
COc1ccc(NC(=O)c2nc[nH]c2C(=O)N[C@@H](CC(C)C)C(=O)OC(C)(C)C)cc1,"inconclusive [activator, partial curve, poor fit]",–
Cc1ccc(S(=O)(=O)c2cnc(SCC(=O)Nc3cccc(Cl)c3)nc2N)cc1C,"inconclusive [activator, partial curve, poor fit]",–
CC(C)(C)C(=O)CC1(O)C(=O)N(Cc2ccc(Cl)cc2)c2ccccc21 (centres undefined),"inconclusive [activator, partial curve, poor fit]",–
COCCN=C1NN=C(c2cc(C)n(CC3CCCO3)c2C)CS1 (centres undefined),–,inactive: -2.8%
CC(NC(=O)Cn1cc2c(n1)CCCCC2)c1ccccc1 (centres undefined),"inconclusive [activator, single point]",–
Cc1ccc(C(=O)CN(C(=O)c2ccc(Cl)c(Cl)c2)N2C(=O)C3C4C=CC(C4)C3C2=O)cc1 (centres undefined),"inconclusive [activator, full curve]",–
CCOC(=O)CSc1c(-c2cccs2)[nH]c2ccccc12,"inconclusive [activator, single point]",–
Cc1ccc2c(CC(=O)NCc3ccccc3)coc2c1C,"inconclusive [activator, single point]",–

SMILES,Potency,growth rescue
S=c1[nH]c2cnc(Cl)nc2[nH]1,"inconclusive [activator, single point]",–
Cc1ccc(Cl)cc1-n1c(=O)c2sc3ccccc3c2n(CC(=O)NC2CCCCC2)c1=O,–,inactive: 18%
CN(C)C(=S)NC(=O)C12CC3(C)CC(C)(CC(C)(C3)C1)C2,"inconclusive [activator, full curve]",–
CCCCn1c(N)c(-c2nc3ccccc3s2)c2c([N+](=O)[O-])nn(CC)c(=O)c21,–,inactive: -3.1%
O=C(Nc1cccnc1)c1ccc(COc2cc(Cl)ccc2Cl)o1,"inconclusive [activator, partial curve, poor fit]",–
CCOC(=O)C1CCCN(S(=O)(=O)c2ccc(N3CCCCS3(=O)=O)cc2)C1 (centres undefined),–,inactive: -12.7%
CCCCOc1ccc(C2(C(=O)O)CCCC2)cc1,"inconclusive [activator, partial curve, poor fit]",–
O=C(NC(N1CCOCC1)C(Cl)(Cl)Cl)c1cc([N+](=O)[O-])cc([N+](=O)[O-])c1 (centres undefined),"inconclusive [activator, single point]",–
S=C(NCc1ccccn1)Nc1ccc(Br)cc1Cl,"inconclusive [activator, single point]",–
O=C(Nc1ccc(C(F)(F)F)cc1)c1cc(S(=O)(=O)NC2CCCCC2)ccc1F,"inconclusive [activator, single point]",–
COC(=O)c1ccccc1NC(=S)NC(=O)c1ccc(C)cc1,–,inactive: -24.1%
CCCCC(=O)Nc1ncc(Br)s1,"inconclusive [activator, partial curve, poor fit]",–
Cc1[nH]c2ccccc2c1C(c1ccccc1)c1ccc(Cl)s1 (centres undefined),"inconclusive [activator, partial curve, poor fit]",–
O=c1c(-c2cc3ccccc3[nH]2)nc2ccccc2n1C(CCc1ccccc1)c1nc2ccccc2[nH]1 (centres undefined),"inconclusive [activator, partial curve]",–
CC(C)C[C@H](NC(=O)OC(C)(C)C)c1nnc(SCc2cccc(F)c2)o1,"inconclusive [activator, partial curve, poor fit]",–
CC1CCCCC12NC(=O)N(CC(=O)Nc1ccc(OC(F)F)cc1)C2=O (centres undefined),–,inactive: 4.61%
O=C(COc1ccc(Cl)cc1Cl)NNC(=S)NCc1ccco1,"inconclusive [activator, single point]",–
Cn1c(=O)c2[nH]c(=O)cnc2n(C)c1=S,–,inactive: 16.2%
Cc1ccc(Cl)cc1NC(=O)C1CCCN(S(=O)(=O)c2cccc3cccnc23)C1 (centres undefined),–,inactive: 18.8%
S=c1nn[nH]n1C12CC3CC(CC(C3)C1)C2,–,inactive: -44.1%
Cc1cccc(Nc2nc(N)nc(CN3CCN(c4ccc(F)cc4)CC3)n2)c1,"inconclusive [activator, full curve]",–
CC(=O)Nc1ccc(CN2C(=O)C(Cc3ccccc3)ON=C2c2ncccc2C)cc1 (centres undefined),–,inactive: -4.39%
